Source: PubChem BioAssay AID1768 (National Center for Advancing Translational Sciences (NCATS), 2009)
In all, about 270,000 compounds went through this assay and about 620 (0.23%) were called active. The inconclusive results got no clear call from the source; some entries with a clear call stand among them for comparison. Calls come from the whole dose curve; as a rule, active = well fitted inhibition curve with a large enough effect in the polarisation, with a control signal flat (not every such curve was filed as active); inconclusive = small, poorly fitted or top-dose-only effect, or effect the other way, or a change in a side signal; inactive = no such curve, though single readings can be large or run the other way; the % refers to the polarisation. Where the call is inconclusive, the potency comes from a doubtful curve fit. “Side channel” marks fits to a control or component signal instead of the main read-out.
Potency is the fitted concentration of half-maximal effect; tags give direction and shape of the fitted curve or compound fluorescence and quenching.

These compounds were tested against Menin (Homo sapiens) (UniProt O00255) (assay: qHTS Assay for Inhibitors Targeting the Menin-MLL Interaction in MLL Related Leukemias: Competition With Texas Red Labeled MLL-derived Mutant Peptide). Conditions: fluorescence polarization; series mostly up to 61.6 µM.
Chain of UniProt O00255 (O00255 whole entry, looked up): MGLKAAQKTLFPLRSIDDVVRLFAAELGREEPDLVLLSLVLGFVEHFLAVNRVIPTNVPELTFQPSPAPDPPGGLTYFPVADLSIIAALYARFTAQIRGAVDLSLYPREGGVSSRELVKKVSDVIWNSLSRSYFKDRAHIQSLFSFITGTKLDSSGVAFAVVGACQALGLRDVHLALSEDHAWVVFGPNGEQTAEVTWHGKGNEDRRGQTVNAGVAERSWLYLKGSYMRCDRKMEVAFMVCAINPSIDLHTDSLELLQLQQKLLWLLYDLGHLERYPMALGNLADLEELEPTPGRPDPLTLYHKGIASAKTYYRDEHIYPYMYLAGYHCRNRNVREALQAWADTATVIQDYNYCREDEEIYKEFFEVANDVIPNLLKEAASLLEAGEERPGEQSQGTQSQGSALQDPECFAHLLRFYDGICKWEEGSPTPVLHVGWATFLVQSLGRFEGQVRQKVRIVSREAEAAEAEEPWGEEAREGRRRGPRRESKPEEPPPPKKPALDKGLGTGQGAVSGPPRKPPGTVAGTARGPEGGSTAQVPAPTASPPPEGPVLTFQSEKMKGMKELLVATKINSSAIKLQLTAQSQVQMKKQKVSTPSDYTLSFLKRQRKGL
`O=C(Nc1ccc(Nc2ccccc2)cc1)C(Cl)Cl` was tested, and the Potency was inconclusive: 25.1 µM [quencher, side channel, partial curve]. `CSc1ccccc1NC(=O)c1cc(-c2ccco2)on1` was tested, and the Potency was inconclusive: 31.6 µM [quencher, side channel, single point]. With `CC(C)CCOc1ccc(-c2c(=O)n(OCc3ccc([N+](=O)[O-])cc3)c3ccccc3[n+]2[O-])cc1` the Potency was inconclusive: 2.24 µM [inhibitor, partial curve]. For `Cc1ccc(C)c(CN2C(=O)CSc3ccc(C(=O)N4CCCC4)cc32)c1`, the Potency was inconclusive: 17.8 µM [fluorescent, side channel, partial curve]. In the case of `O=c1cc(O)n(C2CCCCCC2)c(=O)[nH]1`, the Potency is reported as inconclusive: 17.8 µM [quencher, side channel, partial curve]. With `CC1(C(=O)Nc2nnc(C(C)(C)C)s2)Cc2ccccc2C(=O)O1` (stereo unspecified) the Potency was inconclusive: 39.8 µM [inhibitor, single point]. With `Cc1ccc(S(=O)(=O)Nc2cc(C(=O)NCCN(C)C)ccc2N2CCCCC2)cc1` the Potency was inconclusive: 2.82 µM [inhibitor, full curve, poor fit]. In the case of `C=C(C)Cn1c(-c2ccc(OC)cc2)nc2ccccc21`, the Potency is reported as inconclusive: 15.8 µM [fluorescent, side channel, partial curve]. With `O=C1/C(=C/c2ccccc2O)SC(=S)N1Cc1cccnc1` the Potency was inconclusive: 28.2 µM [fluorescent, side channel, single point]. `NC(=O)CSc1nnc(NC(=O)C2CC(=O)N(c3ccc(F)cc3)C2)s1` (stereo unspecified) was tested, and the Potency was inconclusive: 28.2 µM [quencher, side channel, partial curve]. `CCOc1cc(C)ccc1OCc1nnc(SCC(=O)c2cccc([N+](=O)[O-])c2)n1C` was tested, and the Potency was inconclusive: 3.55 µM [inhibitor, partial curve]. For `COCCCn1c(-c2ccc(S(=O)(=O)N3CCOCC3)cc2)csc1=Nc1ccccc1`, the Potency was inconclusive: 12.6 µM [fluorescent, side channel, partial curve]. `CC(=O)OCC1OC(Oc2cc(OC(C)=O)c3c(=O)cc(-c4ccc(OC(C)=O)c(OC(C)=O)c4)oc3c2)C(OC(C)=O)C(OC(C)=O)C1OC(C)=O` (stereo unspecified) was tested, and the Potency was inconclusive: 7.94 µM [quencher, side channel, full curve]. With `CC1CC1C(=O)Nc1ccc(-c2ccccc2)cc1` (stereo unspecified) the Potency was inconclusive: 39.8 µM [inhibitor, single point]. `O=C(O)c1ccc(-c2ccc(/C=c3/sc4nc5ccccc5n4c3=O)o2)cc1Cl` was tested, and the Potency was inconclusive: 14.1 µM [quencher, side channel, partial curve]. `CCCCCCc1cc2cc(C(=O)Nc3ccccc3)c(=O)oc2cc1O` was tested, and the Potency was inconclusive: 3.55 µM [quencher, side channel, full curve, poor fit]. In the case of `NS(=O)(=O)c1ccc(NC(=O)c2cccc(N3C(=O)c4ccccc4C3=O)c2)cc1`, the Potency is reported as inconclusive: 39.8 µM [quencher, side channel, single point]. For `O=C(NNC(=S)Nc1ccc(Cl)c(Cl)c1)c1ccccn1`, the Potency was inconclusive: 15.8 µM [quencher, side channel, partial curve]. In the case of `O=C1NN(c2ccccc2)C(=O)/C1=C/c1ccc(Sc2cccc3ccccc23)o1`, the Potency is reported as inconclusive: 12.6 µM [quencher, side channel, partial curve]. In the case of `Cn1cc(/C=C/c2cc[n+](C)cc2)c2cc(F)ccc21`, the Potency is reported as inconclusive: 14.1 µM [inhibitor, partial curve]. With `CC1CCN(C(C)C(=O)Nc2ccccc2-c2ccccc2)CC1` (stereo unspecified) the Potency was inconclusive: 17.8 µM [inhibitor, partial curve]. With `Cc1cccc2cc(/C=C3\N=C(c4ccccc4)OC3=O)c(N3CCOCC3)nc12` the Potency was inconclusive: 11.2 µM [quencher, side channel, partial curve]. `O=c1ccc2c(-c3ccccc3)c3ccc(O)cc3oc-2c1` was tested, and the Potency was inconclusive: 10 µM [fluorescent, side channel, partial curve]. For `Cc1ccc(SC(c2ccccc2)C(Cn2cncn2)C(=O)c2ccccc2)cc1` (stereo unspecified), the Potency was inconclusive: 3.55 µM [fluorescent, side channel, full curve]. In the case of `Cc1cccc(C(=O)N2CCC(=O)N([C@H](COCc3cccc(Cl)c3)Cc3ccccc3)CC2)c1`, the Potency is reported as inconclusive: 11.2 µM [inhibitor, partial curve]. For `Cc1c(C)n(CC(O)CNc2ccccc2)c2ccccc12` (stereo unspecified), the Potency was inconclusive: 20 µM [quencher, side channel, partial curve]. `Cc1cccc(OCC(=O)NC(=S)Nc2ccccc2N2CCOCC2)c1C` was tested, and the Potency was inconclusive: 10 µM [fluorescent, side channel, partial curve]. In the case of `O=C(NCC1([N+](=O)[O-])CN(C(=O)c2ccccc2)CN(C(=O)c2ccccc2)C1)c1ccccc1`, the Potency is reported as “inactive”. For `O=C1C(Cl)=C(NCC2CCCO2)C(=O)N1C1CCCCC1` (stereo unspecified), the Potency was inconclusive: 25.1 µM [inhibitor, single point]. With `O=C(Nc1ccc(F)cc1)C1CCCN(S(=O)(=O)c2ccc(-n3cnnn3)cc2)C1` (stereo unspecified) the Potency was inconclusive: 22.4 µM [fluorescent, side channel, single point]. `O=C(CN1CCN(c2ccccn2)CC1)Nc1cccc(Cl)c1Cl` was tested, and the Potency was inconclusive: 11.2 µM [fluorescent, side channel, partial curve]. With `C/C(=N\NC(=O)CNC(=O)C(c1ccccc1)c1ccccc1)c1ccc(C)cc1` the Potency was inconclusive: 10 µM [inhibitor, full curve]. In the case of `Clc1ccccc1-c1nc(N2CCNCC2)c2ccccc2n1`, the Potency is reported as inconclusive: 2.51 µM [inhibitor, full curve, poor fit]. With `CC(=O)[C@@H]1[C@H]2[C@H](C(=O)[C@H]3OC[C@@H]2O3)[C@H]2C=Cc3ccccc3N21` the Potency was inconclusive: 11.2 µM [fluorescent, side channel, partial curve]. In the case of `CC[n+]1c(/C=C/C=C/N(C(C)=O)c2ccccc2)sc2cc(OC)ccc21`, the Potency is reported as inconclusive: 28.2 µM [fluorescent, side channel, partial curve]. `FC(F)Sc1ccc(N=C2NN=C(c3ccc4c(c3)OCCO4)CS2)cc1` was tested, and the Potency was inconclusive: 3.16 µM [inhibitor, full curve]. In the case of `Cc1cc(C)c2c(N)c(C(=O)Nc3cccc(C)c3C)sc2n1`, the Potency is reported as inconclusive: 35.5 µM [fluorescent, side channel, single point]. With `Cc1cc2oc(C(=O)NC3CCS(=O)(=O)C3)c(C)c2cc1C` (stereo unspecified) the Potency was “inactive”. For `O=C(NCCc1ccc(Cl)cc1)c1n[nH]c2ccccc12`, the Potency was inconclusive: 35.5 µM [quencher, side channel, single point]. In the case of `COc1ccc(NC(=S)NC(=O)/C=C/c2cccs2)cc1`, the Potency is reported as inconclusive: 39.8 µM [inhibitor, single point]. For `COc1ccc(C(=O)/C=C2\NCCc3cc(OC)c(OC)cc32)cc1OC`, the Potency was inconclusive: 10 µM [inhibitor, partial curve]. In the case of `COc1cc(OC)cc(-c2nc(=S)n3ccsc3n2)c1`, the Potency is reported as inconclusive: 6.31 µM [inhibitor, full curve]. `Cc1ccc(S(=O)(=O)NC(=NC2CCCCC2)c2ccc(Cl)cc2)cc1` was tested, and the Potency was inconclusive: 20 µM [fluorescent, side channel, partial curve]. For `O=C1Cc2ccccc2C(=O)N1OCc1ccc(Cl)cc1`, the Potency was inconclusive: 25.1 µM [quencher, side channel, partial curve]. `CCC(C)Nc1nc(-c2cccc(OC)c2O)nc2ccccc12` (stereo unspecified) was tested, and the Potency was inconclusive: 7.08 µM [quencher, side channel, full curve]. `CCOc1cc(/C=N/Nc2nnc(C)n2N)ccc1O` was tested, and the Potency was inconclusive: 8.91 µM [quencher, side channel, partial curve]. With `CC(NC(=O)COc1ccccc1)C(=O)OCC(=O)c1cc2ccccc2o1` (stereo unspecified) the Potency was inconclusive: 39.8 µM [quencher, side channel, single point]. In the case of `CCN(CC)C(=O)Cn1nc(-c2ccc(Cl)cc2)c2ccccc2c1=O`, the Potency is reported as inconclusive: 15.8 µM [fluorescent, side channel, partial curve]. With `CCOC(=O)COc1cc([N+](=O)[O-])cc2cccnc12` the Potency was “inactive”. For `COC(=O)c1cc(NC(=O)CC2Oc3ccccc3NC2=O)cc(C(=O)OC)c1` (stereo unspecified), the Potency was inconclusive: 0.631 µM [quencher, side channel, full curve, poor fit]. With `COc1ccc(OC)c(C2=NS(=O)(=O)N(C)C(C(=O)Nc3ccc(C(C)=O)cc3)=C2)c1` the Potency was inconclusive: 11.2 µM [quencher, side channel, partial curve]. In the case of `O=C(Nc1cccc(Cl)c1)OCC#CCCl`, the Potency is reported as inconclusive: 0.708 µM [fluorescent, side channel, full curve]. In the case of `O=C(Nc1cc2c3c(c1)C1CCCC1CN3CC1CCCC21)c1ccc([N+](=O)[O-])cc1` (stereo unspecified), the Potency is reported as inconclusive: 10 µM [quencher, side channel, partial curve]. In the case of `Nc1ccn(Cc2ccccc2F)n1`, the Potency is reported as inconclusive: 10 µM [inhibitor, partial curve]. For `Cc1ccc(C(=O)Nc2ccc(N3CCN(C)CC3)cc2)cc1`, the Potency was “inactive”. `O=C(O)C1CC(O)CN1C(=O)c1ccco1` (stereo unspecified) was tested, and the Potency was inconclusive: 3.55 µM [inhibitor, partial curve].
